Some of the results follow.
Key:
Test in all cases: glycan array binding signal (z-score within array); higher = stronger binding
Conditions in all cases: glycan notation: IUPAC condensed, linker removed
Fuc(a1-2)Gal = target: Fuc(a1-2)Gal
Method in brief: (§1)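 Arrays were curated from the Consortium for Functional Glycomics database, 3228 in total, and kept only where the protein sequence was available. Binding is expressed as a within-array Z-score. This score was averaged across arrays of the same protein sequence at different concentrations or buffers and across linkers, and negative values can be read as non-binding.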

Fuc(a1-2)Gal(b1-3)GalNAc = target: Fuc(a1-2)Gal(b1-3)GalNAc
Method in brief: as §1

[1] = target: Fuc(a1-2)Gal(b1-3)GalNAc(b1-3)Gal
Method in brief: as §1

[2] = target: Fuc(a1-2)Gal(b1-3)GalNAc(b1-3)Gal(a1-4)Gal(b1-4)Glc
Method in brief: as §1

[3] = target: Fuc(a1-2)Gal(b1-3)GalNAc(b1-4)[Neu5Ac(a2-3)]Gal(b1-4)Glc
Method in brief: as §1

Fuc(a1-2)Gal(b1-3)GlcNAc = target: Fuc(a1-2)Gal(b1-3)GlcNAc
Method in brief: as §1

[4] = target: Fuc(a1-2)Gal(b1-3)GlcNAc(b1-3)Gal(b1-4)Glc
Method in brief: as §1

[5] = target: Fuc(a1-2)Gal(b1-3)[Fuc(a1-4)]GlcNAc
Method in brief: as §1

Fuc(a1-2)Gal(b1-4)Glc = target: Fuc(a1-2)Gal(b1-4)Glc
Method in brief: as §1

Fuc(a1-2)Gal(b1-4)Glc6S = target: Fuc(a1-2)Gal(b1-4)Glc6S
Method in brief: as §1

Fuc(a1-2)Gal(b1-4)GlcNAc = target: Fuc(a1-2)Gal(b1-4)GlcNAc
Method in brief: as §1

[6] = target: Fuc(a1-2)Gal(b1-4)GlcNAc(b1-3)Gal(b1-4)GlcNAc
Method in brief: as §1

[7] = target: Fuc(a1-2)Gal(b1-4)GlcNAc(b1-3)Gal(b1-4)GlcNAc(b1-3)Gal(b1-4)GlcNAc
Method in brief: as §1

[8] = target: Fuc(a1-2)Gal(b1-4)GlcNAc6S
Method in brief: as §1

[9] = target: Fuc(a1-2)Gal(b1-4)[Fuc(a1-3)]GlcNAc
Method in brief: as §1

[10] = target: Fuc(a1-2)Gal(b1-4)[Fuc(a1-3)]GlcNAc(b1-3)Gal(b1-4)[Fuc(a1-3)]GlcNAc
Method in brief: as §1

[11] = target: Fuc(a1-2)Gal(b1-4)[Fuc(a1-3)]GlcNAc(b1-3)Gal(b1-4)[Fuc(a1-3)]GlcNAc(b1-3)Gal(b1-4)[Fuc(a1-3)]GlcNAc
Method in brief: as §1

Fuc(a1-2)Gal6S(b1-4)Glc = target: Fuc(a1-2)Gal6S(b1-4)Glc
Method in brief: as §1

[12] = target: Fuc(a1-2)Gal6S(b1-4)Glc6S
Method in brief: as §1

[13] = target: Fuc(a1-2)Gal6S(b1-4)GlcNAc
Method in brief: as §1

Fuc(a1-2)[Gal(a1-3)]Gal = target: Fuc(a1-2)[Gal(a1-3)]Gal
Method in brief: as §1

[14] = target: Fuc(a1-2)[Gal(a1-3)]Gal(b1-3)GlcNAc
Method in brief: as §1

[15] = target: Fuc(a1-2)[Gal(a1-3)]Gal(b1-4)Glc
Method in brief: as §1

[16] = target: Fuc(a1-2)[Gal(a1-3)]Gal(b1-4)GlcNAc
Method in brief: as §1

[17] = target: Fuc(a1-2)[Gal(a1-3)]Gal(b1-4)[Fuc(a1-3)]GlcNAc
Method in brief: as §1

[18] = target: Fuc(a1-2)[Gal(a1-4)]Gal(b1-4)GlcNAc
Method in brief: as §1

[19] = target: Fuc(a1-2)[GalNAc(a1-3)]Gal
Method in brief: as §1

[20] = target: Fuc(a1-2)[GalNAc(a1-3)]Gal(b1-3)GlcNAc
Method in brief: as §1

[21] = target: Fuc(a1-2)[GalNAc(a1-3)]Gal(b1-4)Glc
Method in brief: as §1

[22] = target: Fuc(a1-2)[GalNAc(a1-3)]Gal(b1-4)GlcNAc
Method in brief: as §1

[23] = target: Fuc(a1-2)[GalNAc(a1-3)]Gal(b1-4)[Fuc(a1-3)]GlcNAc
Method in brief: as §1

[24] = target: Fuc(a1-2)[GalNAc(a1-4)]Gal(b1-4)GlcNAc
Method in brief: as §1

[25] = target: Fuc(a1-2)[GalNAc(b1-3)]Gal
Method in brief: as §1

Fuc(a1-3)GlcNAc = target: Fuc(a1-3)GlcNAc
Method in brief: as §1

[26] = target: Fuc(a1-3)[Gal(b1-4)]Glc6S
Method in brief: as §1

[27] = target: Fuc(a1-3)[Gal(b1-4)]GlcNAc
Method in brief: as §1

[28] = target: Fuc(a1-3)[Gal(b1-4)]GlcNAc(b1-2)Man(a1-3)[Fuc(a1-3)[Gal(b1-4)]GlcNAc(b1-2)Man(a1-6)]Man(b1-4)GlcNAc(b1-4)GlcNAc
Method in brief: as §1

[29] = target: Fuc(a1-3)[Gal(b1-4)]GlcNAc(b1-2)Man(a1-6)[Gal(b1-4)GlcNAc(b1-2)Man(a1-3)]Man(b1-4)GlcNAc(b1-4)GlcNAc
Method in brief: as §1

[30] = target: Fuc(a1-3)[Gal(b1-4)]GlcNAc(b1-3)Gal(b1-3)[Fuc(a1-4)]GlcNAc
Method in brief: as §1

[31] = target: Fuc(a1-3)[Gal(b1-4)]GlcNAc(b1-4)Gal(b1-4)[Fuc(a1-3)]GlcNAc
Method in brief: as §1

[32] = target: Fuc(a1-3)[Gal(b1-4)]GlcNAc(b1-4)Gal(b1-4)[Fuc(a1-3)]GlcNAc(b1-4)Gal(b1-4)[Fuc(a1-3)]GlcNAc
Method in brief: as §1

[33] = target: Fuc(a1-3)[Gal(b1-4)]GlcNAc6S
Method in brief: as §1

[34] = target: Fuc(a1-3)[Gal3S(b1-4)]Glc6S
Method in brief: as §1

[35] = target: Fuc(a1-3)[Gal3S(b1-4)]GlcNAc
Method in brief: as §1

[36] = target: Fuc(a1-3)[Gal3S(b1-4)]GlcNAc6S
Method in brief: as §1

[37] = target: Fuc(a1-3)[GalNAc(b1-4)]GlcNAc
Method in brief: as §1

Fuc(a1-4)GlcNAc = target: Fuc(a1-4)GlcNAc
Method in brief: as §1

Fuc(b1-3)GlcNAc = target: Fuc(b1-3)GlcNAc
Method in brief: as §1

Gal(a1-2)Gal = target: Gal(a1-2)Gal
Method in brief: as §1

Gal(a1-3)Gal = target: Gal(a1-3)Gal
Method in brief: as §1

Gal(a1-3)Gal(b1-3)GlcNAc = target: Gal(a1-3)Gal(b1-3)GlcNAc
Method in brief: as §1

Gal(a1-3)Gal(b1-4)Glc = target: Gal(a1-3)Gal(b1-4)Glc
Method in brief: as §1

Gal(a1-3)Gal(b1-4)GlcNAc = target: Gal(a1-3)Gal(b1-4)GlcNAc
Method in brief: as §1

[38] = target: Gal(a1-3)Gal(b1-4)[Fuc(a1-3)]GlcNAc
Method in brief: as §1

Gal(a1-3)GalNAc = target: Gal(a1-3)GalNAc
Method in brief: as §1

[39] = target: Gal(a1-3)[Gal(a1-4)]Gal(b1-4)GlcNAc
Method in brief: as §1

Gal(a1-4)Gal(b1-4)Glc = target: Gal(a1-4)Gal(b1-4)Glc
Method in brief: as §1

Gal(a1-4)Gal(b1-4)GlcNAc = target: Gal(a1-4)Gal(b1-4)GlcNAc
Method in brief: as §1

Gal(a1-4)GlcNAc = target: Gal(a1-4)GlcNAc
Method in brief: as §1

Gal(a1-6)Glc = target: Gal(a1-6)Glc
Method in brief: as §1

B1: NKp30 (Homo sapiens), O14931 (protein)
chain: MAWMLLLILIMVHPGSCALWVSQPPEIRTLEGSSAFLPCSFNASQGRLAIGSVTWFRDEVVPGKEVRNGTPERFGRLAPLASSRFLHDHQAELHIRDVRGHDASIYVCRVEVLGLGVGTGNGTRLVVRKEHPQLGAGTHADPEAPEAEGAPSVFLFPPKPKDTLMISRTPEVTCVVVDVSHEDPEVKFNWYVDGVEVHNAKTPREEQYNSTYRVVSVLTVLHQDWLNGKEYKCKVSNKALPAPIEKTISKAKGQPREPQVYTLPPSRDELTKNQVSLTCLVKGFYPSDIAVEWESNGQPENNYKTTPPVLDSDGSFFLYSKLTVDKSRWQQGNVFSCSVMHEALHNHYTQKSLSLSPGK
Fuc(a1-2)Gal
  glycan array binding signal (z-score): 0.909
Fuc(a1-2)Gal(b1-3)GalNAc
  glycan array binding signal (z-score): -0.27
[1]
  glycan array binding signal (z-score): 0.58
[2]
  glycan array binding signal (z-score): 0.331
[3]
  glycan array binding signal (z-score): -0.12
Fuc(a1-2)Gal(b1-3)GlcNAc
  glycan array binding signal (z-score): 0.424
[4]
  glycan array binding signal (z-score): -0.248
[5]
  glycan array binding signal (z-score): -0.395
Fuc(a1-2)Gal(b1-4)Glc
  glycan array binding signal (z-score): -0.091
Fuc(a1-2)Gal(b1-4)Glc6S
  glycan array binding signal (z-score): 0.207
Fuc(a1-2)Gal(b1-4)GlcNAc
  glycan array binding signal (z-score): 0.208
[6]
  glycan array binding signal (z-score): -0.739
[7]
  glycan array binding signal (z-score): -0.292
[8]
  glycan array binding signal (z-score): -0.294
[9]
  glycan array binding signal (z-score): 0.195
[10]
  glycan array binding signal (z-score): -0.389
[11]
  glycan array binding signal (z-score): -0.18
Fuc(a1-2)Gal6S(b1-4)Glc
  glycan array binding signal (z-score): -0.462
[12]
  glycan array binding signal (z-score): -0.246
[13]
  glycan array binding signal (z-score): 1.01
Fuc(a1-2)[Gal(a1-3)]Gal
  glycan array binding signal (z-score): 0.375
[14]
  glycan array binding signal (z-score): 0.326
[15]
  glycan array binding signal (z-score): -0.318
[16]
  glycan array binding signal (z-score): 0.11
[17]
  glycan array binding signal (z-score): -0.213
[18]
  glycan array binding signal (z-score): -0.315
[19]
  glycan array binding signal (z-score): 0.358
[20]
  glycan array binding signal (z-score): -0.186
[21]
  glycan array binding signal (z-score): -0.303
[22]
  glycan array binding signal (z-score): 0.07
[23]
  glycan array binding signal (z-score): 0.416
[24]
  glycan array binding signal (z-score): -0.379
[25]
  glycan array binding signal (z-score): 0.39
Fuc(a1-3)GlcNAc
  glycan array binding signal (z-score): 13.9
[26]
  glycan array binding signal (z-score): 0.215
[27]
  glycan array binding signal (z-score): -0.152
[28]
  glycan array binding signal (z-score): -0.546
[29]
  glycan array binding signal (z-score): -0.219
[30]
  glycan array binding signal (z-score): -0.545
[31]
  glycan array binding signal (z-score): -0.058
[32]
  glycan array binding signal (z-score): 0.413
[33]
  glycan array binding signal (z-score): 0.056
[34]
  glycan array binding signal (z-score): 0.879
[35]
  glycan array binding signal (z-score): 0.207
[36]
  glycan array binding signal (z-score): 0.526
[37]
  glycan array binding signal (z-score): -0.395
Fuc(a1-4)GlcNAc
  glycan array binding signal (z-score): -0.531
Fuc(b1-3)GlcNAc
  glycan array binding signal (z-score): -0.253
Gal(a1-2)Gal
  glycan array binding signal (z-score): 1.41
Gal(a1-3)Gal
  glycan array binding signal (z-score): 1.89
Gal(a1-3)Gal(b1-3)GlcNAc
  glycan array binding signal (z-score): 0.086
Gal(a1-3)Gal(b1-4)Glc
  glycan array binding signal (z-score): 2.48
Gal(a1-3)Gal(b1-4)GlcNAc
  glycan array binding signal (z-score): 0.054
[38]
  glycan array binding signal (z-score): -0.05
Gal(a1-3)GalNAc
  glycan array binding signal (z-score): 0.08
[39]
  glycan array binding signal (z-score): -0.536
Gal(a1-4)Gal(b1-4)Glc
  glycan array binding signal (z-score): -0.332
Gal(a1-4)Gal(b1-4)GlcNAc
  glycan array binding signal (z-score): -0.395
Gal(a1-4)GlcNAc
  glycan array binding signal (z-score): 0.433
Gal(a1-6)Glc
  glycan array binding signal (z-score): 6.49

— the supplement of paper PMC8728848
